From the supplement of paper PMC7826260 come the findings set out here.

This is one part of the list. The data describe in vitro nicking of single-stranded DNA by Rep domains (1 h at 37 °C, 3 µM enzyme); the outer parts of the 90-letter strands are left off. The score is log2 (uncut reads / reads without enzyme); the lower, the more was cut; hits are not called. Counts are relative to all reads; where an enzyme cuts many sequences, the uncut ones exceed 0.

The test system of this experiment is T1, Rep nickase domain of tomato golden mosaic virus.
T1 sequence (residues 1-124 of Rep, tag left off): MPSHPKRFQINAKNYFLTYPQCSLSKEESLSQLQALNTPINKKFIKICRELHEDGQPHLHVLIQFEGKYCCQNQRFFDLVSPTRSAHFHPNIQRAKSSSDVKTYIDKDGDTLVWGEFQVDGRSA
Description: uncleaved DNA left, log2 of reads against the no-enzyme library (log2 ratio); higher = less cleavage (more negative = more Rep cleavage of the k-mer); sequences stand for … in CTCGTCCG…ACCGGAGA
The method, then:
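A pool of 90-nt single-stranded DNAs with seven random bases just before the constant AC of the nick site (name = the seven bases) was cut by 3 µM recombinant His6-SUMO-tagged Rep nickase domain (300 nM DNA, 50 mM HEPES pH 8.0, 50 mM NaCl, 1 mM MnCl2, 1 h, 37 °C, three replicates). Uncut DNA was amplified and sequenced.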
As to ATTAAGT, the “uncleaved DNA left (log2)” value was -0.0319.
The figure for GGAGCTC is 0.0213; for AGGGTCA it is 0.0223.
The figure for ATTCTCT is -0.0196.
The figure for TGTGAAA is 0.0649.
On to CCATGGC, for which the “uncleaved DNA left (log2)” value is -0.105.
The figure for TTGCGCT is -0.108.
The figure for TCCATCA is 0.0863; for TAGGAAT it is 0.127; for GGTGTCG it is -0.053.
AGCACCT: the “uncleaved DNA left (log2)” value is -0.0338.
As to GCCACGG, the “uncleaved DNA left (log2)” value amounted to 0.0637.
The figure for CATTGGT is -0.0916; for TGAGTGC it is -0.0941; for GCCGCAT it is -0.137.
As for CCACTGC, the “uncleaved DNA left (log2)” value worked out at 0.0873.
The figure for TGAGAGT is 0.18; for AGCGAAC it is -0.0468; for TGCGCTA it is -0.162.
For GCGTTTC, the “uncleaved DNA left (log2)” value was 0.00607.
The figure for ATTGTTT is -0.0805; for GCATCAG it is -0.0025; for TGCCATA it is -0.0255.
Turning to CTTAGCA, the “uncleaved DNA left (log2)” value was -0.107.
The same measure for GCTTATA: -0.0132; for ATTTTCC: 0.0534.
The same measure for AAGTCTA: 0.0757.
The figure for TCAGGTG is 0.0422; for CTCCGCT it is -0.0499.
In the case of ACCATAT, the “uncleaved DNA left (log2)” value turned out to be 0.127.
The figure for TTGTCAG is 0.0924; for CAACCCT it is -0.0412.
The same measure for AAACAGT: -0.0903.
As to TATTACA, the “uncleaved DNA left (log2)” value was -2.25.
As for AATGCTA, the “uncleaved DNA left (log2)” value was -0.0636.
The same measure for ACCAGCC: 0.0789.
The figure for GAGTATG is 0.0764; for AGGCCTA it is 0.0418.
The same measure for CACCCAA: -0.0425; for GCTGACC: 0.141.
